Structures are written as SMILES. This is one part of the list. Most values come without repeats; read them as rough.

Here are results for twelve molecules from the supplement of paper PMC4604168 (melanoma cell lines).
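Also: cell number obtained by counting DAPI-stained nuclei in high-throughput microscope images with image analysis software, screen run in 1,536-well plates.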

The test system of the assay is 501Mel. As to the kind of experiment: cell count relative to DMSO control; melanoma cells; higher = more viable cells. Conditions: library dose: low library concentration; 72 h.
The molecule `O=C(/C=C/c1cccnc1)NCCCCC1CCN(C(=O)c2ccccc2)CC1` + CN1CCN(c2ccc3nc(-c4c(N)c5c(F)cccc5[nH]c4=O)[nH]c3c2)CC1 [Dovitinib] (first compound 0.01 µM, partner dose 0.1 µM) displayed a cell count of 89.7%.

Turning to `Cc1ccc(Nc2nccc(N(C)c3ccc4c(C)n(C)nc4c3)n2)cc1S(N)(=O)=O` [Pazopanib] + Cn1cnc2c(F)c(Nc3ccc(Br)cc3Cl)c(C(=O)NOCCO)cc21 [selumetinib] (first compound 0.4 µM, partner dose 0.015 µM), the cell count was 3.51%.

`Cc1ccc(Nc2nccc(N(C)c3ccc4c(C)n(C)nc4c3)n2)cc1S(N)(=O)=O` [Pazopanib] + Nc1ccn([C@@H]2O[C@H](CO)[C@@H](O)C2(F)F)c(=O)n1 [gemcitabine] (first compound 0.4 µM, partner dose 0.0004 µM) registered a cell count of 100%.

`Cc1ccc(Nc2nccc(N(C)c3ccc4c(C)n(C)nc4c3)n2)cc1S(N)(=O)=O` [Pazopanib] + O=C(O)c1ccc2c(c1)nc(Nc1cccc(Cl)c1)c1ccncc12 [CX4945] (first compound 0.4 µM, partner dose 0.4 µM) came in with a cell count of 91.3%.

`Cc1ccc(Nc2nccc(N(C)c3ccc4c(C)n(C)nc4c3)n2)cc1S(N)(=O)=O` [Pazopanib] + CC(C)(C)c1cnc(CSc2cnc(NC(=O)C3CCNCC3)s2)o1 [SNS-032] (first compound 0.4 µM, partner dose 0.01 µM) showed a cell count of 116%.

`Cc1ccc(Nc2nccc(N(C)c3ccc4c(C)n(C)nc4c3)n2)cc1S(N)(=O)=O` [Pazopanib] + Cn1sc(=O)n(Cc2ccccc2)c1=O [TDZD-8] (first compound 0.4 µM, partner dose 0.4 µM) had a cell count of 107%.

Regarding `Cc1ccc(Nc2nccc(N(C)c3ccc4c(C)n(C)nc4c3)n2)cc1S(N)(=O)=O` [Pazopanib] + C[C@@H](Oc1cc(-c2cnn(C3CCNCC3)c2)cnc1N)c1c(Cl)ccc(F)c1Cl [Crizotinib] (first compound 0.4 µM, partner dose 0.2 µM), the cell count is 119%.

Regarding `CC1(C)CCC(c2ccc(Cl)cc2)=C(CN2CCN(c3ccc(C(=O)NS(=O)(=O)c4ccc(N[C@H](CCN5CCOCC5)CSc5ccccc5)c(S(=O)(=O)C(F)(F)F)c4)cc3)CC2)C1` + NC1(c2ccc(-c3nc4ccn5c(=O)[nH]nc5c4cc3-c3ccccc3)cc2)CCC1 [MK2206] (first compound 0.4 µM, partner dose 0.4 µM), the cell count is 51.5%.

Consider `Cc1ccc(Nc2nccc(N(C)c3ccc4c(C)n(C)nc4c3)n2)cc1S(N)(=O)=O` [Pazopanib] + NCC(=O)Nc1ccc(-n2nc(C(F)(F)F)cc2-c2ccc3c(ccc4ccccc43)c2)cc1 [OSU03012] (first compound 0.4 µM, partner dose 1 µM), for which the cell count stood at 52.2%.

Molecule `Cc1ccc(Nc2nccc(N(C)c3ccc4c(C)n(C)nc4c3)n2)cc1S(N)(=O)=O` [Pazopanib] + Cn1c(=O)n(-c2ccc(C(C)(C)C#N)cc2)c2c3cc(-c4cnc5ccccc5c4)ccc3ncc21 [NVP-BEZ235] (first compound 0.4 µM, partner dose 0.004 µM) returned a cell count of 92.1%.

`Cc1ccc(Nc2nccc(N(C)c3ccc4c(C)n(C)nc4c3)n2)cc1S(N)(=O)=O` [Pazopanib] + Cn1nnc2c(C(N)=O)ncn2c1=O [temozolomide] (first compound 0.4 µM, partner dose 2 µM) returned a cell count of 66.9%.

`O=C(/C=C/c1cccnc1)NCCCCC1CCN(C(=O)c2ccccc2)CC1` + Cc1ccc(NC(=O)c2cccc(N(C)C)c2)cc1NC(=O)c1ccc(O)cc1 [ZM336372] (first compound 0.01 µM, partner dose 2 µM) had a cell count of 78.8%.
